Read counts are not given, so values of variants with three or more changes are uncertain.

First the molecules themselves.
B1: LINE1-mini (parent)
chain: GGCAGAGCUCAACACAGCGUGGCAAAGUGGCUGUGGCUAGACUGCC

The variants in this data set derive from B1. The data set can be described thus: self-cleavage, relative activity (ratio to wild type); higher = more cleavage; in vitro, sequencing; the parent is a self-cleaving ribozyme.
With C3U G7C G29A C42G C46A, the self-cleavage is 0.05.
As for C3U A4G C10U, the self-cleavage was determined as 0.04.
The result for C3U A16C U32G reads 0.08; that for C3U C10U G29C, 0.07.
With C3U A26U A39G G40A U43G G44A, the self-cleavage was 0.01.
On to C3U G19C G21U A41C, for which the self-cleavage came out at 0.06.
Regarding C3U G17A G22C G27C C45U, the self-cleavage is 0.05.
For C3U G36A C37U, the self-cleavage came to 0.06.
Regarding C3G G17C A41G C45A, the self-cleavage was 0.04.
Turning to C3U A16C C31U G33C G40U U43A C45G C46U, the self-cleavage is 0.01.
Turning to C3U G5C C37A G44C, the self-cleavage amounted to 0.28.
On to C3U C8A C13G U34C, for which the self-cleavage is 0.41.
Take C3U G5C G19C C42A: the self-cleavage was found to be 0.05.
As to C3G U9A C15A A24U, the self-cleavage worked out at 0.68.
Turning to C3U A26G G35C, the self-cleavage came to 0.04.
With C3U C15U C23A U43A, the self-cleavage came out at 0.13.
The result for C3U C10G C18U G21A C31U A39G reads 0.01; that for C3U G5U G44C, 0.05; that for C3U U20C G30A, 0.29.
With C3U A26C A39C U43A, the self-cleavage is 0.1.
Turning to C3U G5U C10U U20A, the self-cleavage worked out at 0.01.
As to C3U U32G C37A, the self-cleavage came to 0.11.
The result for C3G U28A C42U reads 0.12; that for C3U G27U G44A, 1.77.
The result for C3U C13G G17C reads 0.09; that for C3U U9A G17U A24G, 0.02; that for C3U G17C G21C, 0.32.
On to C3U C8A C18G G30C C46A, for which the self-cleavage amounted to 0.17.
The result for A4C A11C A24U C31G reads 0.02; that for C3U C18U A25C A26C U28A G35C, 0.1; that for C3G G7U A12U C18A G33A, 0.08.
For C3U C8U U9G G19U G36U U38C, the self-cleavage was 0.05.
The result for C3U G5U A14U C15G G22U reads 0.03.
As to C3U G17A C18U G33C C46U, the self-cleavage is 0.02.
Regarding C3U G5C G19U A24C A25G A26U, the self-cleavage stood at 0.02.
In the case of C3U G21C A25U G36U C42A G44U, the self-cleavage was 0.3.
In the case of C3U A11U G19U U20A, the self-cleavage is 0.04.
C3U G22A G27C: the self-cleavage was 0.55.
A4C A6U C10A C15U C18G G33C G44A: the self-cleavage was found to be 0.01.
The result for C3U C10G G27C G29U reads 0.02; that for C3U A25G G29U, 0.44.
For the variant C3U G7A A26C G30A, the self-cleavage worked out at 0.17.
For C3G G27A C31U, the self-cleavage came out at 0.15.
Regarding C3U G5U G29A U38C, the self-cleavage was found to be 0.06.
For C3U C8G G17U G21C, the self-cleavage was 0.11.
Consider C3U G22A U34G, for which the self-cleavage is 0.05.
C3U C10U G33U: the self-cleavage is 0.05.
Consider C3U C13A A25C G29C C31G, for which the self-cleavage is 0.16.
As to C3U U28C C37A C42U, the self-cleavage came out at 0.08.
C3U A12G G19A U28C G29A: the self-cleavage turned out to be 0.02.
For C3U A14G A25G, the self-cleavage turned out to be 0.07.
Regarding C3G G35C U38C, the self-cleavage is 0.03.
As for C3U G5A G30A A41C, the self-cleavage was 0.11.
In the case of C3U A12C G29U G30C C31G G36U, the self-cleavage was 0.1.
The result for C3U C13A C23U reads 0.15.
As to C3U A14G C18G, the self-cleavage was 0.02.
The result for C3U C8U G29A reads 0.9.
As for C3G U9G G21A, the self-cleavage was 1.36.
As for C3G G17A G21U G27A, the self-cleavage was 0.09.
Take C3U A6G C15G G17A A26U G27C G29C U32A U43C: the self-cleavage was determined as 0.01.
For C3U C13U C37A C45U, the self-cleavage is 0.42.
The result for C3U G5C C18A G29C A39C reads 0.09; that for C3U G35U C46G, 0.08.
For the variant C3U A14C G22U A24U U28A C31G, the self-cleavage turned out to be 0.03.
The result for C3U C10G G30C C31G reads 0.
C3U C8G A26C: the self-cleavage was found to be 0.04.
Turning to C3G G30A G40C G44A, the self-cleavage was 0.14.
Take C3G U38G G40A C46A: the self-cleavage was 0.03.
C3U A12C C45A: the self-cleavage is 0.05.
Take C3U A6G A14C G21U: the self-cleavage was 0.04.
On to C3U G17U G19C G27U C37U A39G, for which the self-cleavage amounted to 0.18.
With C3U G17U C18G G33U C45A, the self-cleavage worked out at 0.12.
The result for C3U G17U G30A G33A A39G reads 0.14; that for C3U C8A C23U U28C C45U, 0.3.
C3U G27A U43C: the self-cleavage was found to be 0.07.
Consider C3U G27U G33C C37A A39U, for which the self-cleavage was 0.11.
For the variant C3U A14G G27A, the self-cleavage turned out to be 0.69.
Take C3U A14C U28G G29U A39G: the self-cleavage was determined as 0.03.
Turning to C3U C8U C18U G27A U38A C42A, the self-cleavage is 0.07.
As to C3U U34G A39U, the self-cleavage is 0.07.
Consider C3U A6U U34A C37G, for which the self-cleavage was 0.02.
For C3U C15U G17A U38A C42A, the self-cleavage is 0.16.
As to C3U G5U G21U U34A, the self-cleavage came to 0.
On to C3G G27U G35U A41C, for which the self-cleavage amounted to 0.11.
The result for C3U A16U G17A U32A C45G reads 0.17; that for C3U C8U G21U U32C, 0.39.
The result for C3U G22A C23U G40A reads 0.06; that for C3U C10G A16C G22C G36C A39G, 0.01.
The result for C3U A16U C37A reads 0.14.
Consider C3U A12G C23G, for which the self-cleavage came out at 0.03.
Consider C3G U20C U28G, for which the self-cleavage worked out at 0.45.
As for C3U A4G A6U G30A, the self-cleavage turned out to be 1.34.
The result for C3U G7C C10A A16U G19A U38A A39U reads 0.02.
Take C3G U20A A24C A25C: the self-cleavage worked out at 0.09.
C3G U9C A11C U20C G33C: the self-cleavage was 0.02.
Turning to C3U A12U C15U U20C G29C G30A, the self-cleavage was determined as 0.12.
For C3U G7C C15G G36U U43A, the self-cleavage turned out to be 0.
On to C3G G30C U43C, for which the self-cleavage was determined as 0.05.
Regarding C3U G21U G22A A41U C42G, the self-cleavage was found to be 0.17.
The result for C3U G44C C46G reads 0.04; that for C3U A14C G29C, 0.03.
As to C3G G19C G27A U32A, the self-cleavage turned out to be 0.62.
The result for C3U U9A G21C C37A reads 0.1; that for C3U G17U C18A, 0.05.
Regarding C3U U9C G30A, the self-cleavage is 0.01.
Turning to C3G G22C G40U C46G, the self-cleavage turned out to be 0.13.
Regarding C3U C10U A24C G36A, the self-cleavage worked out at 0.06.
As to C3U C8U U9G G19U, the self-cleavage came to 0.13.
On to C3U U9A A11G C23A, for which the self-cleavage turned out to be 0.04.
The result for C3U C10A G36U reads 0.03.
The result for C3G U28C C31A reads 0.2; that for C3U G5U A14U A39C C45A, 0.07; that for C3U C8A C10U, 0.07.
Consider C3G G17C C31G G36C, for which the self-cleavage turned out to be 0.04.
Regarding C3U C37A C45A, the self-cleavage was 0.12.
Take C3U A6C A25C G33C G40A: the self-cleavage is 0.08.
The result for C3U U34A C45U reads 0.03; that for C3U G5C G36U G44U, 0.06; that for C3U A16G G35U C37A U43A G44A, 0.02.
Take C3U C15G A41U U43A: the self-cleavage came out at 0.05.
In the case of C3U A14C G19C A26U G44U, the self-cleavage was 0.07.
As to C3U G17U G44A, the self-cleavage is 0.14.
With C3U C15G C18U G27C, the self-cleavage came out at 0.02.
With C3U U9C C23A, the self-cleavage was 0.02.
The result for C3G G17A G29U C31U reads 0.06; that for C3U G19U U28C G30C U32A, 0.09; that for C3U C15A C42A, 0.11.
Consider C3U U32G G35C G36C, for which the self-cleavage stood at 0.06.
As to C3G U28A C31U A39G G40U A41C, the self-cleavage came to 0.05.
In the case of C3U A11U G21U U34G A39U, the self-cleavage came out at 0.02.
The result for C3U G27U U32G reads 0.15; that for C3U A4U G17C G44A, 0.02.
Turning to C3U A16G U20A A26G, the self-cleavage turned out to be 0.03.
Consider C3U G21C A25G A39G, for which the self-cleavage worked out at 0.18.
As to C3U C18U G40U, the self-cleavage was determined as 0.04.
C3G G17C G22U G33U U38C G40C: the self-cleavage was 0.01.
For the variant C3U A4U A6G C13U G33A, the self-cleavage turned out to be 0.03.
For the variant C3U G5U U20A U34G C37U, the self-cleavage amounted to 0.02.
On to C3U C15G G19A, for which the self-cleavage stood at 0.03.
For C3U C15G G19U, the self-cleavage came to 0.01.
For C3U A6C G7C A12U G33U A41U U43G, the self-cleavage came to 0.13.
Take C3U A4U A6G C10U: the self-cleavage is 0.03.
For C3U A14G G21U U38A U43A, the self-cleavage worked out at 0.12.
Take C3U C10U G19U U28C G33A C42G: the self-cleavage turned out to be 0.02.
C3U A4G G5C G7U G22U A26C: the self-cleavage came to 0.36.
The result for C3U G7U G19A reads 1.09; that for C3G U9G G17C, 0.18.
C3U A26C G44C C45A: the self-cleavage came out at 0.02.
Take C3U A4U C18U C23A: the self-cleavage turned out to be 0.06.
The result for C3U A4G C8U A11G C13U reads 0.01; that for C3U A6G G7A U32G U34C, 0.4; that for C3U G5A A6U, 0.01.
With A4C A6U G19C, the self-cleavage is 0.06.
As to C3U G44C C45U, the self-cleavage amounted to 0.08.
In the case of C3G G19A G36A, the self-cleavage was determined as 0.21.
As for C3U A4U A14G G30A, the self-cleavage worked out at 0.06.
The result for C3U C10A G33A reads 0.05; that for C3G G7U U20A G27C, 0.32.
Regarding C3U A4C A12G C31A G33U G35A, the self-cleavage turned out to be 0.05.
As for C3U A6G G7A G21U C42A, the self-cleavage turned out to be 0.24.
The result for C3G G21U C31U G36C C37A reads 0.01.
The result for C3U A12U G21U reads 0.01; that for C3G U20A A39U C42A, 0.08.
On to C3U A14C C18U G36A A41U, for which the self-cleavage turned out to be 0.27.
Take C3G G19A G29A U43A: the self-cleavage stood at 0.46.
The result for C3G G19A C23G G33A U34C G35U reads 0.11; that for C3U A4G U32G, 0.02.

The record behind these values is the RNAGym collection of RNA variant scans (doi:10.7554/elife.90254).
